PubChem BioAssay AID1347165 (National Center for Advancing Translational Sciences (NCATS), 2019)
Hit rate of the full screen: of about 220,000 compounds, about 5,700 (2.6%) were called active. The inconclusive results got no clear call from the source; some entries with a clear call stand among them for comparison. Calls follow the shape of the dose curve; as a rule, active = well fitted inhibition curve with a large enough effect; inconclusive = small, poorly fitted or top-dose-only effect; inactive = no such curve, though single readings can be large or run the other way. A potency beside an inconclusive call is a rough fit, not a confirmed value.

Molecular target: Lysine-specific demethylase 5B (Homo sapiens) (UniProt Q9UGL1)
Experiment: Primary screen for KDM5B Histone Demethylases FDH-coupled qHTS; also: nearly all actives have a fitted effect of over 70% in size
Settings: FDH-coupled NADH fluorescence (FDH is formaldehyde dehydrogenase); series mostly up to 57.7 µM
Method in brief: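 qHTS format, multiple compound concentrations. Buffer 50 mM HEPES pH 7.5/0.01% Tween-20; 200 nM KDM5BΔAP final; 10 min compound preincubation; substrate-mix levels 12.5 µM peptide, 25 µM α-KG, 0.25 mM NAD⁺; 30 min RT; ΔRFU.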
Potency is read from the fitted curve at half-maximal effect; tags tell the direction and shape of the fitted curve.

Chain of UniProt Q9UGL1 (Q9UGL1 whole entry, looked up): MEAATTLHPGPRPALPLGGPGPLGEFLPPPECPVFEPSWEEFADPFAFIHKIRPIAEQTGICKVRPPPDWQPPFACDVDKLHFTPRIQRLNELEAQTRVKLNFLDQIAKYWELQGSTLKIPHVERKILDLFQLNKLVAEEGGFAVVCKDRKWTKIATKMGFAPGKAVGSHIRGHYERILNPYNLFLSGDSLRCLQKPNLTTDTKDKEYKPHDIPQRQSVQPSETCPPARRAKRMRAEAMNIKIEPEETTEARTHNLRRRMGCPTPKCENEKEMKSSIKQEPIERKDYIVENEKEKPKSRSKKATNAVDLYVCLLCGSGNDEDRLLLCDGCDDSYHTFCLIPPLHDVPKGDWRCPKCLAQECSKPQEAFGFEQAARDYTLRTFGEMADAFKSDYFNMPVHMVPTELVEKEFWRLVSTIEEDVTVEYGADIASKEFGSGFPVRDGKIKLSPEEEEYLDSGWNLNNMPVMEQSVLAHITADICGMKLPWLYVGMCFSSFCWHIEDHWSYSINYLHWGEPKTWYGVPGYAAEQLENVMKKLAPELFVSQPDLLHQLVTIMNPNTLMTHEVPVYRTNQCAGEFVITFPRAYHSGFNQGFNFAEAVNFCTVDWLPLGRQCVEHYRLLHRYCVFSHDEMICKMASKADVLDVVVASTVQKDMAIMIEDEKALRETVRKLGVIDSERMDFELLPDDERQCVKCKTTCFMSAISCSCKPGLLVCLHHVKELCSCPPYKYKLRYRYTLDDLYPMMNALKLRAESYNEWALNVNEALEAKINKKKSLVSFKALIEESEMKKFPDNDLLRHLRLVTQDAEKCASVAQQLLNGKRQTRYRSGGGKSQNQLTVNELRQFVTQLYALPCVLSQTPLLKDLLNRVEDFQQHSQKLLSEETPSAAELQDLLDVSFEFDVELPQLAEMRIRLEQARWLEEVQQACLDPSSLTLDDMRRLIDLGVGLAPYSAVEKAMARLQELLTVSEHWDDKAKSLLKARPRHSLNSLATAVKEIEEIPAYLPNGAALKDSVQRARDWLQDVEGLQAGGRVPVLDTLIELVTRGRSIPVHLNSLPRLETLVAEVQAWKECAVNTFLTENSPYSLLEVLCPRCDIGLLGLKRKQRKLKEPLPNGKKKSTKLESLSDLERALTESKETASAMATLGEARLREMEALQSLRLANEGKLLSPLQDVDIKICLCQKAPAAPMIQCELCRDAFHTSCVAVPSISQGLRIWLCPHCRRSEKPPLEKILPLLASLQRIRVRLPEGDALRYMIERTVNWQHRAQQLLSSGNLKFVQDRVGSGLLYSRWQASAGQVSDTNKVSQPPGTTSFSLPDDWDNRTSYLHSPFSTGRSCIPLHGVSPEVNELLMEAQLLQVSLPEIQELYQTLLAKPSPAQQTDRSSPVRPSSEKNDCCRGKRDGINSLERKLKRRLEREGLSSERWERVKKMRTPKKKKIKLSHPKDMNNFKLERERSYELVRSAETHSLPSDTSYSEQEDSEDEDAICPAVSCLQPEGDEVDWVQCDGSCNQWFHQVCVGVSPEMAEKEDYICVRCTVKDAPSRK

| SMILES | Potency |
| --- | --- |
| O=C(Nc1cccc(-c2nc3ccccc3o2)c1)C(F)(F)F | inconclusive: 3.16 µM [inhibitor, partial curve, poor fit] |
| CC(C)CCNc1nc(-c2ccc([N+](=O)[O-])cc2)c(C(=O)Nc2ccccc2)s1 | inactive |
| CCCc1nnc(C[C@@H]2C[C@@H](C(C)C)[C@H](CN3CC[C@H](NC(C)=O)C3)C=C2C)o1 | inconclusive: 35.5 µM [inhibitor, single point] |
| CN(CCCNc1cc(C(=O)N2CCOCC2)c2ccccc2n1)C1CCCCC1 | inconclusive: 22.4 µM [inhibitor, partial curve, poor fit] |
| CCOc1ccc(C(c2c(O)cc(C)n(Cc3ccco3)c2=O)N2CCCCC2)cc1 (stereo unspecified) | inconclusive: 11.2 µM [inhibitor, partial curve, poor fit] |
| COc1ccccc1C(=O)Nc1c(C(=O)Nc2ccccc2F)oc2ccccc12 | inconclusive: 17.8 µM [inhibitor, partial curve, poor fit] |
| Cc1ccc(NC(=O)CC2Sc3ccc(C(F)(F)F)cc3NC2=O)cc1 (stereo unspecified) | inconclusive: 35.5 µM [inhibitor, single point] |
| Cc1cn2nc(C(=O)NCc3ccc(F)cc3)cc2c(=O)[nH]1 | inconclusive: 31.6 µM [inhibitor, partial curve] |
| Cc1cc(-c2ccccc2)n2nc(-c3ccccc3)cc2n1 | inconclusive: 25.1 µM [inhibitor, single point] |
| CCc1nc2c(c(-c3ccc(Cl)cc3)n1)CN(S(=O)(=O)c1ccccc1)CC2 | inactive |
| O=C(NCc1coc(-c2cccs2)n1)c1ccccc1Br | inconclusive: 20 µM [inhibitor, partial curve, poor fit] |
| Cc1ccc(-n2c(O)c(C=Nc3ccc(S(=O)(=O)Nc4ncccn4)cc3)c3ccccc3c2=O)cc1C | inconclusive: 39.8 µM [inhibitor, single point] |
| Cc1c(C(=O)O)oc2c1-c1nn(Cc3ccc(Cl)cc3)cc1CC2 | inconclusive: 31.6 µM [inhibitor, partial curve, poor fit] |
| COc1cc(OC)cc(C(=O)/C(=C/c2cccnc2)c2nc3ccccc3o2)c1 | inconclusive: 14.1 µM [inhibitor, partial curve, poor fit] |
| Cc1ccc2c(c1)N(CCCC(=O)N1CCc3nc4cc(-c5ccccc5)[nH]n4c(=O)c3C1)C(=O)CO2 | inconclusive: 15.8 µM [inhibitor, partial curve, poor fit] |
| Cc1ccc(C2=NN(C(=O)CNc3ccc(C(=O)N(C)C)cc3)C(c3ccco3)C2)o1 (stereo unspecified) | inactive |
